T1: IL-1R (IL-1 Receptor) (UniProt P14778 18-569, limits assumed)
T1 sequence (looked up): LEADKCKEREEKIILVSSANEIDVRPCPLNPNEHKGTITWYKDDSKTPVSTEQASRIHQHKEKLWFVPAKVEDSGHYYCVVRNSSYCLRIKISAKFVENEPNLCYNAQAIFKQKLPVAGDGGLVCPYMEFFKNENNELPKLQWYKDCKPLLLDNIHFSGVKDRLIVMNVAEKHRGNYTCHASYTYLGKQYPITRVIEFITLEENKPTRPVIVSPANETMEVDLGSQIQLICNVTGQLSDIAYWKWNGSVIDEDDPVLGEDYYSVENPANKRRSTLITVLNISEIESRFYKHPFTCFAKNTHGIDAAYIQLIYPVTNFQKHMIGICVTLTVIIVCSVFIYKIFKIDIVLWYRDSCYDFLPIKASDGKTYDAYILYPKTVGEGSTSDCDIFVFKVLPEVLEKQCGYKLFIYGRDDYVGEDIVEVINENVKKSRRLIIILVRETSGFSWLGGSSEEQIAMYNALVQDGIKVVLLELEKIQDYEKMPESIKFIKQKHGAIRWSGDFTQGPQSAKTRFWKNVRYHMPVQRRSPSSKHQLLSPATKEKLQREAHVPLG


Biological target: T1, IL-1R (IL-1 Receptor)
Experiment: cell-based or functional assay

Row | Binder | NF-KB signal, -CD8 cells, 1 ng/ml | NF-KB signal, -CD8 cells, 10 ng/ml | NF-KB signal, -CD8 cells, 100 ng/ml | NF-KB signal, -CD8 cells, 1000 ng/ml
1 | CD8 VHH_5GGS_Fc_hole + Fc-knob_20GGS_IL1α delta 1-6_Q136A (Fc fusion) chain 1: DVQLQESGGGLVQPGGSLRLSCAASGSIFSINVMGWYRQTPGKERELVAKITNFGITSYADSAQGRFTISRGNAKNTVYLQMNSLKPEDTAVYYCNLDTTGWGPPPYQYWGQGTQVTVSSGGSGGSGGSGGSGGSDKTHTCPPCPAPEAAGGPSVFLFPPKPKDTLMISRTPEVTCVVVDVSHEDPEVKFNWYVDGVEVHNAKTKPREEQYNSTYRVVSVLTVLHQDWLNGKEYKCQVSNKALPAPIEKTISKAKGQPREPQVCTLPPSRDELTKNQVSLSCAVKGFYPSDIAVEWESNGQPENNYKTTPPVLDSDGSFFLVSKLTVDKSRWQQGNVFSCSVMHEALHNHYTQKSLSLSPGK chain 2: [letters of human IgG1 Fc with changes not shown]GGSGGSGGSGGSGGSGGSGGSGGSGGSGGSGGSGGSGGSGGSGGSGGSGGSGGSGGSGGSLSNVKYNFMRIIKYEFILNDALNQSIIRANDQYLTAAALHNLDEAVKFDMGAYKSSKDDAKITVILRISKTQLYVTAQDEDQPVLLKEMPEIPKTITGSETNLLFFWETHGTKNYFTSVAHPNLFIATKADYWVCLAGGPPSITDFQILENQA | 0.01 rel. to 100 ng/ml IL1α | 0.02 rel. to 100 ng/ml IL1α | 0.11 rel. to 100 ng/ml IL1α | 0.85 rel. to 100 ng/ml IL1α
2 | CD8 VHH_5GGS_Fc_hole + Fc-knob_20GGS_IL1α delta 1-6_Q153A (Fc fusion) chain 1: DVQLQESGGGLVQPGGSLRLSCAASGSIFSINVMGWYRQTPGKERELVAKITNFGITSYADSAQGRFTISRGNAKNTVYLQMNSLKPEDTAVYYCNLDTTGWGPPPYQYWGQGTQVTVSSGGSGGSGGSGGSGGSDKTHTCPPCPAPEAAGGPSVFLFPPKPKDTLMISRTPEVTCVVVDVSHEDPEVKFNWYVDGVEVHNAKTKPREEQYNSTYRVVSVLTVLHQDWLNGKEYKCQVSNKALPAPIEKTISKAKGQPREPQVCTLPPSRDELTKNQVSLSCAVKGFYPSDIAVEWESNGQPENNYKTTPPVLDSDGSFFLVSKLTVDKSRWQQGNVFSCSVMHEALHNHYTQKSLSLSPGK chain 2: [letters of human IgG1 Fc with changes not shown]GGSGGSGGSGGSGGSGGSGGSGGSGGSGGSGGSGGSGGSGGSGGSGGSGGSGGSGGSGGSLSNVKYNFMRIIKYEFILNDALNQSIIRANDQYLTAAALHNLDEAVKFDMGAYKSSKDDAKITVILRISKTQLYVTAQDEDQPVLLKEMPEIPKTITGSETNLLFFWETHGTKNYFTSVAHPNLFIATKQDYWVCLAGGPPSITDFAILENQA | 0.01 rel. to 100 ng/ml IL1α | 0.02 rel. to 100 ng/ml IL1α | 0.18 rel. to 100 ng/ml IL1α | 0.61 rel. to 100 ng/ml IL1α
3 | CD8 VHH_5GGS_Fc_hole + Fc-knob_20GGS_IL1α delta 1-6_I68G (Fc fusion) chain 1: DVQLQESGGGLVQPGGSLRLSCAASGSIFSINVMGWYRQTPGKERELVAKITNFGITSYADSAQGRFTISRGNAKNTVYLQMNSLKPEDTAVYYCNLDTTGWGPPPYQYWGQGTQVTVSSGGSGGSGGSGGSGGSDKTHTCPPCPAPEAAGGPSVFLFPPKPKDTLMISRTPEVTCVVVDVSHEDPEVKFNWYVDGVEVHNAKTKPREEQYNSTYRVVSVLTVLHQDWLNGKEYKCQVSNKALPAPIEKTISKAKGQPREPQVCTLPPSRDELTKNQVSLSCAVKGFYPSDIAVEWESNGQPENNYKTTPPVLDSDGSFFLVSKLTVDKSRWQQGNVFSCSVMHEALHNHYTQKSLSLSPGK chain 2: [letters of human IgG1 Fc with changes not shown]GGSGGSGGSGGSGGSGGSGGSGGSGGSGGSGGSGGSGGSGGSGGSGGSGGSGGSGGSGGSLSNVKYNFMRIIKYEFILNDALNQSIIRANDQYLTAAALHNLDEAVKFDMGAYKSSKDDAKGTVILRISKTQLYVTAQDEDQPVLLKEMPEIPKTITGSETNLLFFWETHGTKNYFTSVAHPNLFIATKQDYWVCLAGGPPSITDFQILENQA | 0.01 rel. to 100 ng/ml IL1α | 0.01 rel. to 100 ng/ml IL1α | 0.01 rel. to 100 ng/ml IL1α | 0.18 rel. to 100 ng/ml IL1α

Further lines, results first:

Row | NF-KB signal, -CD8 cells, 1 ng/ml | NF-KB signal, -CD8 cells, 10 ng/ml | NF-KB signal, -CD8 cells, 100 ng/ml | NF-KB signal, -CD8 cells, 1000 ng/ml | Binder
4 | 0.02 rel. to 100 ng/ml IL1α | 0.02 rel. to 100 ng/ml IL1α | 0.09 rel. to 100 ng/ml IL1α | 0.71 rel. to 100 ng/ml IL1α | CD8 VHH_5GGS_Fc_hole + Fc-knob_20GGS_IL1α delta 1-6_D64A (Fc fusion) chain 1: DVQLQESGGGLVQPGGSLRLSCAASGSIFSINVMGWYRQTPGKERELVAKITNFGITSYADSAQGRFTISRGNAKNTVYLQMNSLKPEDTAVYYCNLDTTGWGPPPYQYWGQGTQVTVSSGGSGGSGGSGGSGGSDKTHTCPPCPAPEAAGGPSVFLFPPKPKDTLMISRTPEVTCVVVDVSHEDPEVKFNWYVDGVEVHNAKTKPREEQYNSTYRVVSVLTVLHQDWLNGKEYKCQVSNKALPAPIEKTISKAKGQPREPQVCTLPPSRDELTKNQVSLSCAVKGFYPSDIAVEWESNGQPENNYKTTPPVLDSDGSFFLVSKLTVDKSRWQQGNVFSCSVMHEALHNHYTQKSLSLSPGK chain 2: [letters of human IgG1 Fc with changes not shown]GGSGGSGGSGGSGGSGGSGGSGGSGGSGGSGGSGGSGGSGGSGGSGGSGGSGGSGGSGGSLSNVKYNFMRIIKYEFILNDALNQSIIRANDQYLTAAALHNLDEAVKFDMGAYKSSKADAKITVILRISKTQLYVTAQDEDQPVLLKEMPEIPKTITGSETNLLFFWETHGTKNYFTSVAHPNLFIATKQDYWVCLAGGPPSITDFQILENQA
5 | 0.01 rel. to 100 ng/ml IL1α | 0.03 rel. to 100 ng/ml IL1α | 0.23 rel. to 100 ng/ml IL1α | 0.91 rel. to 100 ng/ml IL1α | CD8 VHH_5GGS_Fc_hole + Fc-knob_20GGS_IL1α delta 1-6_I68A (Fc fusion) chain 1: DVQLQESGGGLVQPGGSLRLSCAASGSIFSINVMGWYRQTPGKERELVAKITNFGITSYADSAQGRFTISRGNAKNTVYLQMNSLKPEDTAVYYCNLDTTGWGPPPYQYWGQGTQVTVSSGGSGGSGGSGGSGGSDKTHTCPPCPAPEAAGGPSVFLFPPKPKDTLMISRTPEVTCVVVDVSHEDPEVKFNWYVDGVEVHNAKTKPREEQYNSTYRVVSVLTVLHQDWLNGKEYKCQVSNKALPAPIEKTISKAKGQPREPQVCTLPPSRDELTKNQVSLSCAVKGFYPSDIAVEWESNGQPENNYKTTPPVLDSDGSFFLVSKLTVDKSRWQQGNVFSCSVMHEALHNHYTQKSLSLSPGK chain 2: [letters of human IgG1 Fc with changes not shown]GGSGGSGGSGGSGGSGGSGGSGGSGGSGGSGGSGGSGGSGGSGGSGGSGGSGGSGGSGGSLSNVKYNFMRIIKYEFILNDALNQSIIRANDQYLTAAALHNLDEAVKFDMGAYKSSKDDAKATVILRISKTQLYVTAQDEDQPVLLKEMPEIPKTITGSETNLLFFWETHGTKNYFTSVAHPNLFIATKQDYWVCLAGGPPSITDFQILENQA
6 | 0.01 rel. to 100 ng/ml IL1α | 0.01 rel. to 100 ng/ml IL1α | 0.12 rel. to 100 ng/ml IL1α | 0.97 rel. to 100 ng/ml IL1α | CD8 VHH_5GGS_Fc_hole + Fc-knob_20GGS_IL1α delta 1-6_K67A (Fc fusion) chain 1: DVQLQESGGGLVQPGGSLRLSCAASGSIFSINVMGWYRQTPGKERELVAKITNFGITSYADSAQGRFTISRGNAKNTVYLQMNSLKPEDTAVYYCNLDTTGWGPPPYQYWGQGTQVTVSSGGSGGSGGSGGSGGSDKTHTCPPCPAPEAAGGPSVFLFPPKPKDTLMISRTPEVTCVVVDVSHEDPEVKFNWYVDGVEVHNAKTKPREEQYNSTYRVVSVLTVLHQDWLNGKEYKCQVSNKALPAPIEKTISKAKGQPREPQVCTLPPSRDELTKNQVSLSCAVKGFYPSDIAVEWESNGQPENNYKTTPPVLDSDGSFFLVSKLTVDKSRWQQGNVFSCSVMHEALHNHYTQKSLSLSPGK chain 2: [letters of human IgG1 Fc with changes not shown]GGSGGSGGSGGSGGSGGSGGSGGSGGSGGSGGSGGSGGSGGSGGSGGSGGSGGSGGSGGSLSNVKYNFMRIIKYEFILNDALNQSIIRANDQYLTAAALHNLDEAVKFDMGAYKSSKDDAAITVILRISKTQLYVTAQDEDQPVLLKEMPEIPKTITGSETNLLFFWETHGTKNYFTSVAHPNLFIATKQDYWVCLAGGPPSITDFQILENQA

From patent US20240358826A1 (ORIONIS BIOSCIENCES, published 2024)
